# Assay results reported in paper PMC10721220.
# Sequences of proteins named here, by UniProt entry; tags and fusion partners are left off.
# UniProt Q0VGT2: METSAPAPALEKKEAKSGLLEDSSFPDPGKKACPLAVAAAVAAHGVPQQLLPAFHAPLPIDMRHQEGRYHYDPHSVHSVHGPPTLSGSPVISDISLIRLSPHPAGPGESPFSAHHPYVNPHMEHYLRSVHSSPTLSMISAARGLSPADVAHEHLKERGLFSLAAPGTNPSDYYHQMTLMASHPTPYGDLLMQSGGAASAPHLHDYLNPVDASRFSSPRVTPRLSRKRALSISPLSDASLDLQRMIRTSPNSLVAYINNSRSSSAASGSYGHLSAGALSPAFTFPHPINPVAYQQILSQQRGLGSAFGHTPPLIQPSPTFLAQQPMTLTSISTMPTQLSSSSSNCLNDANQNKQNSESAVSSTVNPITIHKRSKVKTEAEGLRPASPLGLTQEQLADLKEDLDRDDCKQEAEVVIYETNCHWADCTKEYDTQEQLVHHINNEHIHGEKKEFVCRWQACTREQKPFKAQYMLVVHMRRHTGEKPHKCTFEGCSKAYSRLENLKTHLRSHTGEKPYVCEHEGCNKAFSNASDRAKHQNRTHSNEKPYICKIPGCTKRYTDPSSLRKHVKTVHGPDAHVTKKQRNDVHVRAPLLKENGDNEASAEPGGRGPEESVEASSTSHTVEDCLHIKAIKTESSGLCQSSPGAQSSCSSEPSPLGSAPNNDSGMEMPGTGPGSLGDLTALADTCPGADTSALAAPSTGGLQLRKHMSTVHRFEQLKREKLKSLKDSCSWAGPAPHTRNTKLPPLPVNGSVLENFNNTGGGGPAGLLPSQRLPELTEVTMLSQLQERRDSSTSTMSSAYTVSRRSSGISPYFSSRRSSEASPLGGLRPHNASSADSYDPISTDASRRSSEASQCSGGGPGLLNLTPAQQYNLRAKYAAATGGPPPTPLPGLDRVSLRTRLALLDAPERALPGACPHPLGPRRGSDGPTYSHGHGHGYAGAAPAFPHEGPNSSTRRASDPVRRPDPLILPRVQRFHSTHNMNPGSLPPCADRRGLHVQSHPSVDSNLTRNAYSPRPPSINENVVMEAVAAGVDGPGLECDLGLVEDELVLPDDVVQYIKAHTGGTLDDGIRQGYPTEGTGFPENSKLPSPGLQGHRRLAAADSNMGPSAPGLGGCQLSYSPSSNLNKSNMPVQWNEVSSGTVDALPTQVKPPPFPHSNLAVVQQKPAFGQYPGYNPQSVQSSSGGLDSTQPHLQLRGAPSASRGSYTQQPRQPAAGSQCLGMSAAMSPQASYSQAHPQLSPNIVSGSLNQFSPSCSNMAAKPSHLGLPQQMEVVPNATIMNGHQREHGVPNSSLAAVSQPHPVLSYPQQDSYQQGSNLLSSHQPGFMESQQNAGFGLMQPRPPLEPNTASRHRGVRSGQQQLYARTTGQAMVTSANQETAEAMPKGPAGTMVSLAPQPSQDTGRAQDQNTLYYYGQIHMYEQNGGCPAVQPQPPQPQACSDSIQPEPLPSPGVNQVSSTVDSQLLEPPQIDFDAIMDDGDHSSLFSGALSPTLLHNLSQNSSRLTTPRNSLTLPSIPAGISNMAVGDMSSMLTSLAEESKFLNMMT
# No constants are given. Whether binding was seen depends on the method and setting. In cells and extracts the contact can be indirect. Some binding calls cover weakened binding; strength is not graded here. For some of these results: Tags and fused reporters may be left off the sequences shown.
# T1: hUlk4N-HA (aa 1-450, contains the pseudokinase domain) (human) (UniProt Q96C45)
# T1 sequence: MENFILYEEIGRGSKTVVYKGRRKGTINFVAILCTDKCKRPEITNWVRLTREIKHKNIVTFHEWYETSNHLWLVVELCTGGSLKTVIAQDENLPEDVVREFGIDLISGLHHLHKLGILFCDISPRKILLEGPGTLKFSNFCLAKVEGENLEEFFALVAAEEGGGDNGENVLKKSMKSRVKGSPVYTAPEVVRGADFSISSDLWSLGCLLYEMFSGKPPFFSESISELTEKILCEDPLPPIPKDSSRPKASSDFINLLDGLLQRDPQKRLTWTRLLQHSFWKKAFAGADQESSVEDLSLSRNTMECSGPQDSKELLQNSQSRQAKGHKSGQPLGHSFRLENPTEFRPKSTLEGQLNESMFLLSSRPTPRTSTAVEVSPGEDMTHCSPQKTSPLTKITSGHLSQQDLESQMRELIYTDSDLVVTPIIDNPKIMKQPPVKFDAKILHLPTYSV
# T2: Fg-Stk36C (regulatory domain of Stk36) (human) (UniProt Q9NRP7)
# T2 sequence: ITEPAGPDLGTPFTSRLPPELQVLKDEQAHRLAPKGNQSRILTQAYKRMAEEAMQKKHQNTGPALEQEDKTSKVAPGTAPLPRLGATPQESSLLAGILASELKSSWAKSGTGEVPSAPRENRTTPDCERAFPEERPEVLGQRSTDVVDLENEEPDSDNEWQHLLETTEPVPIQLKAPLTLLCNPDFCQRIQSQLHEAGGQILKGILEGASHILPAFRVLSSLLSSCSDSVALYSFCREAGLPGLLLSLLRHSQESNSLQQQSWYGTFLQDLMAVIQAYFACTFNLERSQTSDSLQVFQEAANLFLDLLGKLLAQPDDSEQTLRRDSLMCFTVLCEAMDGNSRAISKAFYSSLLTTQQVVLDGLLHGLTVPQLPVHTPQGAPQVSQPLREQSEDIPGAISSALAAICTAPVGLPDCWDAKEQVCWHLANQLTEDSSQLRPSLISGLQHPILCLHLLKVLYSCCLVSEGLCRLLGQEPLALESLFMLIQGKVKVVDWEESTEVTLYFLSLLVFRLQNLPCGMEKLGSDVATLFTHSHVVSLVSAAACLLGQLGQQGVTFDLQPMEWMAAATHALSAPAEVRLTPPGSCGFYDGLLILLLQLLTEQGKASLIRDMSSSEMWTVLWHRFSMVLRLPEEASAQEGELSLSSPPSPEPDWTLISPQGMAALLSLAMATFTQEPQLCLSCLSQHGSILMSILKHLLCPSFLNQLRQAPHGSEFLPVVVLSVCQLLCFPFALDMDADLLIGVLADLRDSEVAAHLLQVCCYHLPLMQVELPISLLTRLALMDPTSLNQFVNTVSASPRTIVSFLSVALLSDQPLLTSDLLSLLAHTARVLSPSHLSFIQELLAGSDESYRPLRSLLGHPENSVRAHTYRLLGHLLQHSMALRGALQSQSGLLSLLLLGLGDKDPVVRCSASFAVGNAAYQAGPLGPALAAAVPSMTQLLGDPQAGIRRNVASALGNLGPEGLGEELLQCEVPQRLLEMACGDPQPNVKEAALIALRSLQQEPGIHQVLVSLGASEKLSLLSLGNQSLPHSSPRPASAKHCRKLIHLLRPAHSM
# T3: hUlk4C-HA (451-1275, contains the C-terminal regulatory domain) (human) (UniProt Q96C45)
# T3 sequence: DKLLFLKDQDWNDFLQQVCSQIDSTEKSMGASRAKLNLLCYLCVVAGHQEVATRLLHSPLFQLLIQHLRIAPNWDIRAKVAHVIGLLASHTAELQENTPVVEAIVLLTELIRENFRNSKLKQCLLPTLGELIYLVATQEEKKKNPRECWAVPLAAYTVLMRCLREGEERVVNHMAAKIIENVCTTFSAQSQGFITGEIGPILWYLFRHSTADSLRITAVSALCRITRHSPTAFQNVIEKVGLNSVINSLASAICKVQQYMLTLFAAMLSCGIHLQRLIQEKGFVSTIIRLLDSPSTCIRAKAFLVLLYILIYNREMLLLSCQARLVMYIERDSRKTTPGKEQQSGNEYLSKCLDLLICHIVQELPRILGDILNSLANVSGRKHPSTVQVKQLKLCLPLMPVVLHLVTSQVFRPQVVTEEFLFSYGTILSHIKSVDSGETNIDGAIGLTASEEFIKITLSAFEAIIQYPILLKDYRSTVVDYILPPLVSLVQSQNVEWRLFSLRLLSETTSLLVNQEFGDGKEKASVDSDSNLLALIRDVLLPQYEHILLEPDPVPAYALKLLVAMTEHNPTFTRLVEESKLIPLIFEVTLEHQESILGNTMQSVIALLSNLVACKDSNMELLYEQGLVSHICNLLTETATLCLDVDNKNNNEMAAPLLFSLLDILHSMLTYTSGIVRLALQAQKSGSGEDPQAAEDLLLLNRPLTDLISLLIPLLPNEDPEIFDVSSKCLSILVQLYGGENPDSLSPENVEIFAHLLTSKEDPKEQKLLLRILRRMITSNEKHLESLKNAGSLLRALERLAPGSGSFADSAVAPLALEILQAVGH
# Assays:
# Assay in all cases: co-IP; HEK293T cells transfected 48 hr with the tagged constructs; cleared lysates incubated with Myc, HA or Flag antibody, protein A-Sepharose beads, 4°C; western blot; for Stk36/Gli2 with control or Ulk4 shRNA
# [1] = molecular target: C-terminal HA-tagged human Ulk4 (hUlk4-HA) (human) (UniProt Q96C45)
# [2] = molecular target: T1, hUlk4N-HA (aa 1-450, contains the pseudokinase domain) (human)
# [3] = molecular target: T2, Fg-Stk36C (regulatory domain of Stk36) (human)
# [4] = molecular target: T3, hUlk4C-HA (451-1275, contains the C-terminal regulatory domain) (human)
Molecule,binding [1],binding [2],binding [3],binding [4]
"Fg-Stk36N (kinase domain of Stk36, aa1-260) (from UniProt Q9NRP7 1-260) (domain or fragment)",binds,,,
Myc-tagged Gli2 (Myc-Gli2) (from UniProt Q0VGT2 1-1544),binds,no binding,no binding,binds
N-terminal CFP-tagged Stk36 (CFP-Stk36) (from UniProt Q9NRP7 1-1315),binds,,,
N-terminally 3XFg-tagged human Stk36 (Fg-Stk36) (from UniProt Q9NRP7 1-1315) (enzyme),binds,binds,,no binding
"Flag (Fg)-tagged Sufu (Fg-Sufu) (protein, UniProt Q9Z0P7 1-484) MAELRPSVAPGPAAPPASGPSAPPAFASLFPPGLHAIYGECRRLYPDQPNPLQVTAIVKYWLGGPDPLDYVSMYRNMGSPSANIPEHWHYISFGLSDLYGDNRVHEFTGTDGPSGFGFELTFRLKRETGESAPPTWPAELMQGLARYVFQSENTFCSGDHVSWHSPLDNSESRIQHMLLTEDPQMQPVRTPFGVVTFLQIVGVCTEELHSAQQWNGQGILELLRTVPIAGGPWLITDMRRGETIFEIDPHLQERVDKGIETDGSNLSGVSAKCAWDDLSRPPEDEEDSRSICLGTQPRRLSGKDTEQIRETLRRGLEINSKPVLPPINSQRQNGLTHDRAPSRKDSLGSDSSTAIIPHELIRTRQLESVHLKFNQESGALIPLCLRGRLLHGRHFTYKSITGDMAITFVSTGVEGAFATEEHPYAAHGPWLQILLTEEFVEKMLEDLEDLTSPEEFKLPKEYSWPEKKLKVSILPDVVFDSPLH",binds,no binding,,binds
"Fg-Stk36C (regulatory domain of Stk36) (domain or fragment, UniProt Q9NRP7 261-1315) ITEPAGPDLGTPFTSRLPPELQVLKDEQAHRLAPKGNQSRILTQAYKRMAEEAMQKKHQNTGPALEQEDKTSKVAPGTAPLPRLGATPQESSLLAGILASELKSSWAKSGTGEVPSAPRENRTTPDCERAFPEERPEVLGQRSTDVVDLENEEPDSDNEWQHLLETTEPVPIQLKAPLTLLCNPDFCQRIQSQLHEAGGQILKGILEGASHILPAFRVLSSLLSSCSDSVALYSFCREAGLPGLLLSLLRHSQESNSLQQQSWYGTFLQDLMAVIQAYFACTFNLERSQTSDSLQVFQEAANLFLDLLGKLLAQPDDSEQTLRRDSLMCFTVLCEAMDGNSRAISKAFYSSLLTTQQVVLDGLLHGLTVPQLPVHTPQGAPQVSQPLREQSEDIPGAISSALAAICTAPVGLPDCWDAKEQVCWHLANQLTEDSSQLRPSLISGLQHPILCLHLLKVLYSCCLVSEGLCRLLGQEPLALESLFMLIQGKVKVVDWEESTEVTLYFLSLLVFRLQNLPCGMEKLGSDVATLFTHSHVVSLVSAAACLLGQLGQQGVTFDLQPMEWMAAATHALSAPAEVRLTPPGSCGFYDGLLILLLQLLTEQGKASLIRDMSSSEMWTVLWHRFSMVLRLPEEASAQEGELSLSSPPSPEPDWTLISPQGMAALLSLAMATFTQEPQLCLSCLSQHGSILMSILKHLLCPSFLNQLRQAPHGSEFLPVVVLSVCQLLCFPFALDMDADLLIGVLADLRDSEVAAHLLQVCCYHLPLMQVELPISLLTRLALMDPTSLNQFVNTVSASPRTIVSFLSVALLSDQPLLTSDLLSLLAHTARVLSPSHLSFIQELLAGSDESYRPLRSLLGHPENSVRAHTYRLLGHLLQHSMALRGALQSQSGLLSLLLLGLGDKDPVVRCSASFAVGNAAYQAGPLGPALAAAVPSMTQLLGDPQAGIRRNVASALGNLGPEGLGEELLQCEVPQRLLEMACGDPQPNVKEAALIALRSLQQEPGIHQVLVSLGASEKLSLLSLGNQSLPHSSPRPASAKHCRKLIHLLRPAHSM",no binding,,,
